Results from publication PMC12040169 (PLOS Biology, 2025).
Some of the results follow.

What follows are compounds tested on T1, C. trachomatis L2/434/Bu expressing GFP (CTL2-GFP). Settings: total inclusion area; 28.5 h, 10 µM; inhibitor.
T1 construct: L2/434/Bu GFP intracellular growth in HeLa cells
Parameters: species or system HeLa; C. trachomatis total inclusion area by high-content imaging, normalised to DMSO
Method in brief: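 Bulk GFP and resorufin signals were read first. Wells were then fixed, stained with Hoechst and imaged to detect GFP inclusions and host nuclei. MICs followed the previously described calculation.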
CC12CCC(=O)N1CCCN2 (stereo not drawn) [CBK067102T] was tested, and the “% of control remaining” value was 50.9397.
In the case of Cc1cc(C)nc(SCc2c(C)c(C)c(CSc3nc(C)cc(C)n3)c(C)c2C)n1 [CBK262070], the “% of control remaining” value was 96.9455.
O=C(NC(N1CCCCC1)C(Cl)(Cl)Cl)NC(N1CCCCC1)C(Cl)(Cl)Cl (stereo not drawn) [CBK261020] was tested, and the “% of control remaining” value was 103.2.
OCCCN1CCC(Oc2cncc(OCc3cccnc3)n2)C1 (stereo not drawn) [CBK084465] was tested, and the “% of control remaining” value was 82.3644.
In the case of Cc1nc(N)nc(NCC2CCN(C3CC3)C2)c1Cl (stereo not drawn) [CBK306575], the “% of control remaining” value was 54.9125.
In the case of c1ccc2c(c1)CCC(Oc1cncc(N3CCNCC3)n1)C2 (stereo not drawn) [CBK172295G], the “% of control remaining” value was 34.0774.
In the case of Cc1ccc2oc(C(=O)N3CCC(Oc4cccnc4)CC3)cc2c1 [CBK281498], the “% of control remaining” value was 85.6952.
For COCCCn1c(=O)[nH]c2ncc(-c3cccc(C(=O)NCCO)c3)nc21 [CBK065042], the “% of control remaining” value was 99.6559.
For Nc1ncc(-c2cc(C(F)(F)F)cc(C(F)(F)F)c2)nc1NCc1ccco1 [CBK063689], the “% of control remaining” value was 126.512.
In the case of Cc1nc2c(OCc3ccc(C#N)cc3)cccn2c1N(C)Cc1cccs1 [CBK147336], the “% of control remaining” value was 107.29.
With Cc1nccn1CCC1CCN(C(=O)CCCn2ccnc2)CC1 [CBK281988] the “% of control remaining” value was 106.227.
Cc1cc(Cl)c(S(=O)(=O)Nc2cccc(Br)c2)cc1OCC(N)=O [CBK266535] was tested, and the “% of control remaining” value was 108.407.
CCc1nnc(SCc2cccc(C(=O)O)c2)o1 [CBK286993] was tested, and the “% of control remaining” value was 112.45.
With O=C(NC1CCS(=O)(=O)C1)c1c[nH]c2ccccc2c1=O (stereo not drawn) [CBK304295] the “% of control remaining” value was 52.0598.
CCn1cc(C(=O)N2CCC(C(=O)OC)CC2)c(=O)c2ccc(C)nc21 [CBK305848] was tested, and the “% of control remaining” value was 70.5171.
COc1ccc(C(C)C)cc1-c1nccnc1NCc1ccc(S(C)(=O)=O)cc1 [CBK036903] was tested, and the “% of control remaining” value was 92.6332.
In the case of COc1nc2ccn(CCC3CCOC3)c(=O)c2cc1C#N (stereo not drawn) [CBK307343], the “% of control remaining” value was 68.7513.
With COCC(=O)NCC1Cc2cc(F)cc(-c3ccc(C(C)=O)s3)c2O1 (stereo not drawn) [CBK307310] the “% of control remaining” value was 70.6765.
With CC1CCC(N(Cc2nnc(C3CCC3)n2C)CC2CCCO2)CC1 (stereo not drawn) [CBK305540] the “% of control remaining” value was 71.2929.
COc1ccc(/C=C(/NC(=O)c2cccc(Cl)c2)C(=O)Nc2ccccc2)cc1 [CBK263342] was tested, and the “% of control remaining” value was 46.9226.
For NS(=O)(=O)c1ccc(CCNC(=O)c2cc(Br)cnc2N2CCOCC2)cc1 [CBK076225], the “% of control remaining” value was 99.5124.
CC(=O)NCCn1cc2c(n1)[C@H]1CN(C(=O)C(C)C)C[C@H]1CC2 [CBK284571] was tested, and the “% of control remaining” value was 111.131.
In the case of COc1ccc(CNc2cc(/C=C/c3ccccc3)nc3ccnn23)cc1 [CBK037075], the “% of control remaining” value was 100.425.
For Cc1ccc2cc(CN3CCCC(N)CC3)c(N3CCOCC3)nc2c1 (stereo not drawn) [CBK307693], the “% of control remaining” value was 69.8464.
With CCOc1cc(/C=C2\SC(=N)NC2=O)ccc1OS(=O)(=O)c1ccc(NC(C)=O)cc1 [CBK265243] the “% of control remaining” value was 99.8014.
In the case of N#Cc1ccc(NCC(=O)Nc2ccn(Cc3ccncc3)n2)cc1 [CBK306241], the “% of control remaining” value was 32.1744.
In the case of O=c1/c(=C/c2ccc(N3CCOCC3)cc2)sc2nc3cc(Br)cnc3n12 [CBK262574], the “% of control remaining” value was 101.254.
CC(C)(C)C(=O)N1CCC(n2nc(C3CC3)ccc2=O)CC1 [CBK284242] was tested, and the “% of control remaining” value was 82.7452.
Cc1cc(C)n(CC(=O)N2CCNCC2c2cccc(Cl)c2)n1 (stereo not drawn) [CBK304116] was tested, and the “% of control remaining” value was 78.5087.
With CC(C)Nc1cccnc1N1CCN(C(=O)c2ccncc2)CC1 [CBK016714] the “% of control remaining” value was 62.6245.
With Cn1cc(-c2ccc(OCC3CCN(C(=O)OC(C)(C)C)CC3)cn2)cn1 [CBK173498] the “% of control remaining” value was 99.3938.
With CCC(=O)NC(Nc1cc(Cl)ccc1OC)(C(F)(F)F)C(F)(F)F [CBK261342] the “% of control remaining” value was 103.095.
For CC(=O)c1ccc(NC(=O)NNS(=O)(=O)c2ccc(F)cc2)cc1 [CBK266944], the “% of control remaining” value was 103.812.
In the case of CC(C)(CN)CN(Cc1cccc(Cl)c1)C(=O)Nc1ccc2c(c1)OCO2 [CBK002482C], the “% of control remaining” value was 30.6252.
For CN1CCC(CNC(=O)Cn2ccc3ccc(F)cc32)(N(C)C)CC1 [CBK282569], the “% of control remaining” value was 106.169.
COc1ccc(CCN2CCC(CNC(=O)NCc3ccccc3)CC2)cc1OC [CBK051511T] was tested, and the “% of control remaining” value was 140.381.
In the case of CCC(=O)Nc1nc2ccccc2n1CCN1CCOCC1 [CBK261477], the “% of control remaining” value was 84.1832.
CN(C)C(=O)c1nccnc1-c1ccc(COc2ccc3c(c2)OCO3)cc1 [CBK050829] was tested, and the “% of control remaining” value was 101.863.
In the case of Cc1nc(-c2nnc3ccc(Cl)nn23)c(Br)[nH]1 [CBK028706B], the “% of control remaining” value was 63.8812.
In the case of Cc1cc(OCc2nc(-c3ccc(NC(=O)c4ccc5c(c4)OCO5)cc3)no2)ccc1Cl [CBK266673], the “% of control remaining” value was 90.8947.
In the case of COc1ccc(C2=NN(c3ccc([N+](=O)[O-])cc3)C(=O)/C2=C/NCc2ccc3c(c2)OCO3)cc1 [CBK264598], the “% of control remaining” value was 115.017.
In the case of CCN(CC)C(=O)C1CCCN(C(=O)NCCc2c[nH]c3ccccc23)C1 (stereo not drawn) [CBK156140], the “% of control remaining” value was 88.2121.
In the case of CCN(CC)CCSc1nc(O)c(Cc2ccccc2)c(=O)[nH]1 [CBK072486], the “% of control remaining” value was 77.7106.
With CN(C)CC1CN(c2nc(-c3ccncc3)nc3c2CCC3)CCO1 (stereo not drawn) [CBK305824] the “% of control remaining” value was 82.093.
In the case of O=C(O)C1CCN(C(=O)CCN2C(=O)[C@@H]3Cc4ccccc4CN3C2=O)CC1 [CBK286682], the “% of control remaining” value was 117.002.
In the case of CN(Cc1cc(Br)cs1)C(=O)CCc1c[nH]c2ccccc12 [CBK298268], the “% of control remaining” value was 42.6178.
With CCCNC(=O)N1CCC(n2cnc3cccnc32)CC1 [CBK282282] the “% of control remaining” value was 62.5193.
In the case of CCc1ncc(C(=O)N(Cc2ccccn2)CC2CCCO2)cn1 (stereo not drawn) [CBK307077], the “% of control remaining” value was 34.6299.
For Cn1c(N2CC[C@H](O)C2)nc2cc(C(=O)NCCn3cccn3)ccc21 [CBK307328], the “% of control remaining” value was 77.2239.
With COc1ccc2[nH]cc(CCNC(=O)[C@@H]3Cc4c([nH]c5ccccc45)C4(CCN(Cc5ccc(F)cc5)C4)N3)c2c1 (stereo partly drawn) [CBK066937] the “% of control remaining” value was 98.6303.
For Nc1ncnc(NNC(=O)CNC(=O)c2ccccc2C(F)(F)F)c1[N+](=O)[O-] [CBK267186], the “% of control remaining” value was 135.981.
In the case of Cc1cccc(C(C)(C)C)c1NC(=O)NCCc1cccs1 [CBK044530], the “% of control remaining” value was 93.0024.
In the case of CN(C)C(CNS(=O)(=O)c1cc2c(cc1Br)NC(=O)CO2)c1ccc(F)cc1 (stereo not drawn) [CBK298296], the “% of control remaining” value was 92.5265.
With Cc1ccc(S(=O)(=O)N(CC(=O)Nc2cccnc2)c2ccc(F)cc2)cc1 [CBK263968] the “% of control remaining” value was 111.005.
In the case of Cc1ccc(S(=O)(=O)NC[C@H]2O[C@@H](CC(=O)N3CCOCC3)[C@H](O)[C@@H]2O)cc1 [CBK288924], the “% of control remaining” value was 81.2306.
In the case of CC1CC(C)CN(C2CCN(Cc3ccccn3)CC2)C1 (stereo not drawn) [CBK264639G], the “% of control remaining” value was 86.1178.
C#CCNC(=O)N(C)C1CCN(c2ncnc3ccccc23)CC1 [CBK306109] was tested, and the “% of control remaining” value was 45.0949.
With CCSCCN1CCC(Oc2nccnc2OCc2ccc(Br)cc2F)CC1 [CBK161087] the “% of control remaining” value was 96.1406.
For Cc1cc(C(=O)N2CCC3(CCN(Cc4ccccc4)C3)C2)n[nH]1 (stereo not drawn) [CBK137092T], the “% of control remaining” value was 95.7244.
CC(C)C(=O)Nc1cccc(-c2cn3ccsc3n2)c1 [CBK096253] was tested, and the “% of control remaining” value was 117.866.
Nc1n[nH]c(SCC(=O)N2CCN(C(c3ccccc3)c3ccccc3)CC2)n1 [CBK267893] was tested, and the “% of control remaining” value was 105.479.
CCOC(=O)CN1CCN(S(=O)(=O)c2ccc(F)c(F)c2F)CC1 [CBK044345] was tested, and the “% of control remaining” value was 104.154.
In the case of CC(Oc1ccc(Cl)cc1Cl)C(=O)NC(=S)Nc1ccc2c(c1)C(=O)N(C)C2=O (stereo not drawn) [CBK267356], the “% of control remaining” value was 110.717.
For CCCn1c(C(=O)Nc2cccnc2)cc2c(=O)n(C)c(=O)n(C)c21 [CBK287838], the “% of control remaining” value was 108.711.
O=C(c1ncoc1-c1ccc(F)cc1)N1CCN2CCCC2C1 (stereo not drawn) [CBK282399] was tested, and the “% of control remaining” value was 115.558.
For CCCc1cc(C(=O)NCCCN)cc(CCC)c1OCc1ccccc1 [CBK001736C], the “% of control remaining” value was 55.3004.
Cc1ccccc1OCc1nnc(SCc2c(Cl)cccc2[N+](=O)[O-])n1C [CBK265846] was tested, and the “% of control remaining” value was 121.389.
With CCOC(=O)CN/C(=N/O)c1c(Cl)cccc1Cl [CBK022374] the “% of control remaining” value was 63.2451.
For FC(F)(F)c1cccc(OC2CCCNC2)n1 (stereo not drawn) [CBK113290], the “% of control remaining” value was 95.7103.
CC(=O)N1CC[C@@H]2NC(=O)[C@H]3C[C@H](NC(=O)c4ccc(F)c(Cl)c4)CN3C(=O)[C@H]21 [CBK289270] was tested, and the “% of control remaining” value was 116.111.
In the case of CC(Oc1cccc(C#N)c1)C(=O)N1CCSCC1 (stereo not drawn) [CBK305748], the “% of control remaining” value was 96.0808.
O=C(O)CCN1C(=O)C(O)=C(C(=O)c2ccc(Cl)cc2)C1c1ccccc1[N+](=O)[O-] (stereo not drawn) [CBK264553] was tested, and the “% of control remaining” value was 107.677.
O=C(O)CCC(=O)Nc1ccc(N2CCN(CCO)CC2)cc1 [CBK078486] was tested, and the “% of control remaining” value was 97.4284.
In the case of FC(F)(F)c1ccc2[nH]c(Cn3cncn3)nc2c1 [CBK007335], the “% of control remaining” value was 88.0084.
In the case of CC[C@H]1CN(C(=O)C2CC2)CC[C@H]1CC(=O)NCc1ccc2c(c1)OCO2 [CBK289133], the “% of control remaining” value was 109.31.
For O=S(=O)(NCCc1ccncc1)c1ccc(Cl)c(Cl)c1 [CBK044438], the “% of control remaining” value was 47.7361.
In the case of CCOc1cc(/C=N\NC(=O)CNc2ccccc2C)cc(Br)c1O [CBK262151], the “% of control remaining” value was 108.664.
COCC(=O)Nc1nc2c(s1)C[C@]1(C)CC[C@@H]3[C@H](OC(=O)[C@H]3C)[C@H]1[C@@H]2C [CBK289430] was tested, and the “% of control remaining” value was 129.273.
